Test results reported in the supplement of paper PMC3334620.
The full ranking holds about 33,000 sequences; the median of “E-score (-0.5 to 0.5)” is about -0.035, and the highest 2% start at about 0.34. This is one part of the list.

These sequences were tested against T1, Mot3 (UniProt P54785) (assay: PBM E-score (8-mer binding enrichment) (E-score (-0.5 to 0.5)); higher = stronger / more preferred TF binding; most listed sequences are background and not binding sites). Settings: protein concentration: 200 nM; construct: GST-full length.
T1 sequence: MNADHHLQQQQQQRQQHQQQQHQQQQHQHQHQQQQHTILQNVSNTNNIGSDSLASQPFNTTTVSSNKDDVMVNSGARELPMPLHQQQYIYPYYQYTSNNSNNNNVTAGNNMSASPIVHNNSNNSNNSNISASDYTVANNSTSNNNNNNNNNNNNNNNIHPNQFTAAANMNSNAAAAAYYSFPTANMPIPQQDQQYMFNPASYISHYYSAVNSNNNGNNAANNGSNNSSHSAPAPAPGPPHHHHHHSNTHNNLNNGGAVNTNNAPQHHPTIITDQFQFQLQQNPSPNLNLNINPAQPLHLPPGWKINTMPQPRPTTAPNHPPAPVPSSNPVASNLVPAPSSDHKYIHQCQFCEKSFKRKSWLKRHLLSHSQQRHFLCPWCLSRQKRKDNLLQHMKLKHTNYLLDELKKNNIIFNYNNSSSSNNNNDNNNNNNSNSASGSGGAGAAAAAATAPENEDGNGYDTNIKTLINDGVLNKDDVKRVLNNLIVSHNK
In short: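 Full-length yeast transcription factors or their DNA-binding domains, GST-tagged and expressed with PURExpress, were applied at about 100-200 nM to universal all-10-mer Agilent arrays. These arrays had been made double-stranded by primer extension on fresh or once-stripped slides. Detection used fluorescent anti-GST, normalisation used masliner, and E-scores for ungapped eight-base words pooled with reverse complements came from the Universal PBM Analysis Suite.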

Row | Sequence | PBM E-score
1 | CACTAATC | -0.126
2 | AGCTGCTA | -0.2
3 | GCTACGAC | -0.0179
4 | CATTTTTA | 0.0617
5 | CACTTCTG | -0.0864
6 | CACGAATC | 0.14
7 | CGTATACA | 0.251
8 | ATTAGTAA | 0.164
9 | GAGCCCTA | -0.152
10 | ATCGTTCG | -0.025
11 | AATCCTGA | -0.0452
12 | CATGTTCA | 0.296
13 | CCCTTACA | 0.202
14 | CCGAGTGC | -0.213
15 | GTTCTTGA | 0.102
16 | CATCCATC | -0.132
17 | GCGTCGAC | -0.066
18 | GGAAAACC | 0.185
19 | GCCCGTCA | -0.258
20 | CTACATTC | 0.0249
21 | GACGTTCA | -0.16
22 | GCGGCCCA | -0.201

Row | Sequence | PBM E-score
23 | TGCTTTAA | 0.142
24 | ATTGGGAA | -0.213
25 | CTATTCCC | -0.154
26 | CCACCACA | 0.0219
27 | AACAAAGG | 0.155
28 | CCGACTTA | -0.115
29 | GTGTCGAA | 0.0976
30 | AGCAGGAG | -0.0982
31 | ATTGTGTA | 0.346
32 | AGAGTCAG | -0.0441
33 | AGTGGGTG | -0.124
34 | AACCCTGG | -0.127
35 | ACTTAGCC | -0.115
36 | AATGTGTG | 0.166
37 | CGCTGTTA | -0.0162
38 | ACATATCT | 0.215
39 | CTTTTTGA | 0.00873
40 | CCTTGACA | 0.133
41 | CCCGTCAA | -0.124
42 | CATTGCCG | 0.00256
43 | AGTAGACA | 0.105
44 | CACACTTC | 0.0757

Row | Sequence | PBM E-score
45 | GAAGCCAC | -0.196
46 | GAAGCAGA | -0.0484
47 | AAACAGCT | -0.268
48 | GATGAATA | 0.108
49 | AGGTACGA | 0.346
50 | AGATGATA | 0.0421
51 | AACCTAAA | 0.198
52 | GGACCGTA | -0.201
53 | ATCGTCTG | -0.22
54 | CCCGCGGG | -0.0809
55 | ACGTGCCA | 0.00099
56 | CCGGAGTA | -0.0441
57 | CTGCGTTC | 0.0947
58 | CATACCAA | 0.124
59 | AGACGATC | -0.288
60 | ACTGGGAC | 0.00503
61 | GCACAGAA | 0.0237
62 | AACAACGT | 0.113
63 | GCACAGCA | 0.144
64 | CTGATAAA | 0.0655
65 | ACCGAGTC | -0.166
66 | ACCGACAG | -0.18

Row | Sequence | PBM E-score
67 | CCCGACCC | -0.183
68 | ACTATATA | 0.137
69 | CATGCTAC | -0.0683
70 | GATAGCCA | -0.3
71 | AGGCCCAG | -0.143
72 | TATACTAA | 0.0563
73 | ATATTCGG | -0.0963
74 | ATTTACGC | 0.239
75 | GGCGGCCA | -0.169
76 | AAGTTTCA | 0.0149
77 | CGCACACA | 0.0423
78 | GGCGCCAA | 0.04
79 | CGTCAGTC | -0.0396
80 | GCTTGCTA | -0.197
81 | AGTTGAGA | -0.078
82 | GCGAGCTA | -0.129
83 | AGAGTAAA | 0.162
84 | ACGTTACT | 0.137
85 | CATTGTCG | 0.149
86 | TCAAAGCA | 0.0103
